Consider six molecules from PMC4560833.

Common to all, as to assay: co-IP; HEK293T cells transiently transfected; lysis buffer 20 mM Tris-HCl pH 7.5, 137 mM NaCl, 5 mM EDTA, 1% NP-40, 10% glycerol; antibody overnight at 4 °C, protein A/G agarose, immunoblot; in Fig. 4e cells in normal medium, LD medium or LD medium with 25-HC
For assay [1], the target named is T1, Myc-tagged Scap (SREBP cleavage-activating protein) (UniProt Q12770).
T1 sequence: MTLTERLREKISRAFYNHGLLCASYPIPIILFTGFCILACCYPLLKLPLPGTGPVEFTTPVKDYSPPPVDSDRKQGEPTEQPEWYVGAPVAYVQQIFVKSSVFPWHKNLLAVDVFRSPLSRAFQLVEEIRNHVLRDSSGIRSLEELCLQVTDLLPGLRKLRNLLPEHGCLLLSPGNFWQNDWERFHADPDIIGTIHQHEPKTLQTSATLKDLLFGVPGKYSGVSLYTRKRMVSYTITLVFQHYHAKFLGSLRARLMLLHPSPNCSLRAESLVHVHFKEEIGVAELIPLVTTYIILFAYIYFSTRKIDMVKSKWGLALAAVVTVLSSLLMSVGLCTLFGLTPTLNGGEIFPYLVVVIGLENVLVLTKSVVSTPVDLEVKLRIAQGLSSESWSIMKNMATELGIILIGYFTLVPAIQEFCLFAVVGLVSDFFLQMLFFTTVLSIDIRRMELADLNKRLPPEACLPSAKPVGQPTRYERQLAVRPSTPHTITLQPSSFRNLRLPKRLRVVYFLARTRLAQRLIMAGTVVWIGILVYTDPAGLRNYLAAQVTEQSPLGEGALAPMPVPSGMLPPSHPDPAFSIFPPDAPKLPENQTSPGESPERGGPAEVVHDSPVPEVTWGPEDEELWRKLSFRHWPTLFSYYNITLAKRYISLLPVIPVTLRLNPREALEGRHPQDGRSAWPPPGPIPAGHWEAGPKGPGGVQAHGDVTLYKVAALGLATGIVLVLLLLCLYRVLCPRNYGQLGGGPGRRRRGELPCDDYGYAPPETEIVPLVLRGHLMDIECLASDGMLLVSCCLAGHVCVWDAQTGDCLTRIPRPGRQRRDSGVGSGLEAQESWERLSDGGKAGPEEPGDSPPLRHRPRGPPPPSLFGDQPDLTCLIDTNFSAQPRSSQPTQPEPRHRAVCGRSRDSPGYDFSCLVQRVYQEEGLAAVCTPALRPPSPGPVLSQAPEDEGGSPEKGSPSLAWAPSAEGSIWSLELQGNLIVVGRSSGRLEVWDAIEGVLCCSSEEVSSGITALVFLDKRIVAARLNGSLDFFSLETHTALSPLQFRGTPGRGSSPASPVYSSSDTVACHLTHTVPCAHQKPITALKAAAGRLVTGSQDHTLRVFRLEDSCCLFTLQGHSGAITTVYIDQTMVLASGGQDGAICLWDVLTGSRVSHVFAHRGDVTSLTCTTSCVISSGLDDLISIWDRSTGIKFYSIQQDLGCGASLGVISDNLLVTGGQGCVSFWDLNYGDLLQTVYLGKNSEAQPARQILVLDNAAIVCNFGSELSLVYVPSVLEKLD

Assay [2] addresses T2, PAQR3 (progestin and adipoQ receptors 3), overexpressed (UniProt Q6TCH7).
T2 sequence: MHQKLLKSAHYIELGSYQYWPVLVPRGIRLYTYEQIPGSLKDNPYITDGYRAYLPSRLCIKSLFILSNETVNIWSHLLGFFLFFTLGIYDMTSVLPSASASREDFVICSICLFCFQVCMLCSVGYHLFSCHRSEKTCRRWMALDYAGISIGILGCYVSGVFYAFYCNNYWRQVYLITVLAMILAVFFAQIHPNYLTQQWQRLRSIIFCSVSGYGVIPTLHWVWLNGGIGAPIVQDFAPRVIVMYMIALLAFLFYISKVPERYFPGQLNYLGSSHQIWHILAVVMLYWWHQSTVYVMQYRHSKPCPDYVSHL

Another assay concerns the target T3, Flag-tagged SREBP-2 (UniProt Q12772).
T3 sequence: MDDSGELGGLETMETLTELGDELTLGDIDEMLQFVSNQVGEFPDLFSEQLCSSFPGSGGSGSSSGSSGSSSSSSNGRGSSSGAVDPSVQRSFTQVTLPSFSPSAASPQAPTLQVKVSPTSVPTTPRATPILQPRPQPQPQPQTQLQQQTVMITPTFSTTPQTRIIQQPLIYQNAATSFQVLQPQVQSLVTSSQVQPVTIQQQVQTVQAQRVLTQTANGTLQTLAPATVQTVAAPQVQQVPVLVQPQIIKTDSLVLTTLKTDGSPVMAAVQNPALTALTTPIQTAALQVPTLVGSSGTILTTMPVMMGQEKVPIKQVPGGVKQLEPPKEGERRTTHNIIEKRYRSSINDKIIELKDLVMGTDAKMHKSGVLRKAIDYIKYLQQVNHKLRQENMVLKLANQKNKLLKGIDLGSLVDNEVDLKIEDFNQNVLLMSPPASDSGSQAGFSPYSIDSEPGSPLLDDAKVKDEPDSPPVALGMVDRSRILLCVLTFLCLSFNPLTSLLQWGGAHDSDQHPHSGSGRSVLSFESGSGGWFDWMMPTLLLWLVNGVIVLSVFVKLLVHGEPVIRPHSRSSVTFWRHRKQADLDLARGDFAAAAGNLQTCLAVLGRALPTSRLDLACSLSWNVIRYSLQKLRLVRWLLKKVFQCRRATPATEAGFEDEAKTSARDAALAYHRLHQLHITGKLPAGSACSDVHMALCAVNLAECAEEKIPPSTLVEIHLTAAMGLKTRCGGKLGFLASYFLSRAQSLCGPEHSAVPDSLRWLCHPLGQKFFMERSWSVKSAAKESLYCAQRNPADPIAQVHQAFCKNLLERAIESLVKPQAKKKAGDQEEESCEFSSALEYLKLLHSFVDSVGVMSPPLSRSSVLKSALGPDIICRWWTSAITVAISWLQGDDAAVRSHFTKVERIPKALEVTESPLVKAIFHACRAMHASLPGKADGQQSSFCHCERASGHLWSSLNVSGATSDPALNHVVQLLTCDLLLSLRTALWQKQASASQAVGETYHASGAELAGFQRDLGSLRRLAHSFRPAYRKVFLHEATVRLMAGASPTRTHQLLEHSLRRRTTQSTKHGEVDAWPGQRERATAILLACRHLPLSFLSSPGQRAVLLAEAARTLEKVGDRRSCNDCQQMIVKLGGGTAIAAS

Results are given in words; binding and its absence hold for the method and conditions named. In cells and extracts the contact can be indirect. Some binding calls cover weakened binding; strength is not graded here. Where a sequence is shown, tags or fusion partners need not be part of it.

B1: calnexin (protein, UniProt P27824 21-592)
chain: HDGHDDDVIDIEDDLDDVIEEVEDSKPDTTAPPSSPKVTYKAPVPTGEVYFADSFDRGTLSGWILSKAKKDDTDDEIAKYDGKWEVEEMKESKLPGDKGLVLMSRAKHHAISAKLNKPFLFDTKPLIVQYEVNFQNGIECGGAYVKLLSKTPELNLDQFHDKTPYTIMFGPDKCGEDYKLHFIFRHKNPKTGIYEEKHAKRPDADLKTYFTDKKTHLYTLILNPDNSFEILVDQSVVNSGNLLNDMTPPVNPSREIEDPEDRKPEDWDERPKIPDPEAVKPDDWDEDAPAKIPDEEATKPEGWLDDEPEYVPDPDAEKPEDWDEDMDGEWEAPQIANPRCESAPGCGVWQRPVIDNPNYKGKWKPPMIDNPSYQGIWKPRKIPNPDFFEDLEPFRMTPFSAIGLELWSMTSDIFFDNFIICADRRIVDDWANDGWGLKKAADGAAEPGVVGQMIEAAEERPWLWVVYILTVALPVFLVILFCCSGKKQTSGMEYKKTDAPQPDVKEEEEEKEEEKDKGDEEEEGEEKLEEKQKSDAEEDGGTVSQEEEDRKPKAEEDEILNRSPRNRKPRRE
As to B1, in assay [1], the binding result is given as “no binding”.

B2: Insig-1 cloned into p3Xflag-CMV-10 (protein, UniProt O15503 1-277)
chain: MPRLHDHFWSCSCAHSARRRGPPRASAAGLAAKVGEMINVSVSGPSLLAAHGAPDADPAPRGRSAAMSGPEPGSPYPNTWHHRLLQRSLVLFSVGVVLALVLNLLQIQRNVTLFPEEVIATIFSSAWWVPPCCGTAAAVVGLLYPCIDSHLGEPHKFKREWASVMRCIAVFVGINHASAKLDFANNVQLSLTLAALSLGLWWTFDRSRSGLGLGITIAFLATLITQFLVYNGVYQYTSPDFLYIRSWLPCIFFSGGVTVGNIGRQLAMGVPEKPHSD
Consider B2, for which the values for the binding result in assay [1] and in assay [2] were “binds” and “no binding”, respectively.

B3: golgin-97 (protein, UniProt Q92805 1-767)
chain: MFAKLKKKIAEETAVAQRPGGATRIPRSVSKESVASMGADSGDDFASDGSSSREDLSSQLLRRNEQIRKLEARLSDYAEQVRNLQKIKEKLEIALEKHQDSSMRKFQEQNETFQANRAKMAEGLALALARKDQEWSEKMDQLEKEKNILTAQLQEMKNQSMNLFQRRDEMDELEGFQQQELSKIKHMLLKKEESLGKMEQELEARTRELSRTQEELMNSNQMSSDLSQKLEELQRHYSTLEEQRDHVIASKTGAESKITALEQKEQELQALIQQLSIDLQKVTAETQEKEDVITHLQEKVASLEKRLEQNLSGEEHLQELLKEKTLAEQNLEDTRQQLLAARSSQAKAINTLETRVRELEQTLQASEEQLQQSKGIVAAQETQIQELAAANQESSHVQQQALALEQQFLERTQALEAQIVALERTRAADQTTAEQGMRQLEQENAALKECRNEYERSLQNHQFELKKLKEEWSQREIVSVAMAQALEEVRKQREEFQQQAANLTAIIDEKEQNLREKTEVLLQKEQEILQLERGHNSALLQIHQLQAELEALRTLKAEEAAVVAEQEDLLRLRGPLQAEALSVNESHVTSRAMQDPVFQLPTAGRTPNGEVGAMDLTQLQKEKQDLEQQLLEKNKTIKQMQQRMLELRKTLQKELKIRPDNELFEVREKPGPEMANMAPSVTNNTDLTDAREINFEYLKHVVLKFMSCRESEAFHLIKAVSVLLNFSQEEENMLKETLEYKMSWFGSKPAPKGSIRPSISNPRIPWS
As to B3, the binding entry in assay [1] is reported as “no binding”.

B4: PAQR3 with deletion of amino acid residues 1–60 (domain or fragment, UniProt Q6TCH7 61-311)
chain: KSLFILSNETVNIWSHLLGFFLFFTLGIYDMTSVLPSASASREDFVICSICLFCFQVCMLCSVGYHLFSCHRSEKTCRRWMALDYAGISIGILGCYVSGVFYAFYCNNYWRQVYLITVLAMILAVFFAQIHPNYLTQQWQRLRSIIFCSVSGYGVIPTLHWVWLNGGIGAPIVQDFAPRVIVMYMIALLAFLFYISKVPERYFPGQLNYLGSSHQIWHILAVVMLYWWHQSTVYVMQYRHSKPCPDYVSHL
For B4, the binding result (in assay [1]; with Flag-tagged SREBP-2) was “no binding” in each case.

B5: PAQR3 with deletion of amino acid residues 1–20 (domain or fragment, UniProt Q6TCH7 21-311)
chain: PVLVPRGIRLYTYEQIPGSLKDNPYITDGYRAYLPSRLCIKSLFILSNETVNIWSHLLGFFLFFTLGIYDMTSVLPSASASREDFVICSICLFCFQVCMLCSVGYHLFSCHRSEKTCRRWMALDYAGISIGILGCYVSGVFYAFYCNNYWRQVYLITVLAMILAVFFAQIHPNYLTQQWQRLRSIIFCSVSGYGVIPTLHWVWLNGGIGAPIVQDFAPRVIVMYMIALLAFLFYISKVPERYFPGQLNYLGSSHQIWHILAVVMLYWWHQSTVYVMQYRHSKPCPDYVSHL
Consider B5, for which the binding entry in assay [1] is listed as “binds”; with Flag-tagged SREBP-2, “no binding”.

B6: PAQR3 with deletion of amino acid residues 1–40 (domain or fragment, UniProt Q6TCH7 41-311)
chain: KDNPYITDGYRAYLPSRLCIKSLFILSNETVNIWSHLLGFFLFFTLGIYDMTSVLPSASASREDFVICSICLFCFQVCMLCSVGYHLFSCHRSEKTCRRWMALDYAGISIGILGCYVSGVFYAFYCNNYWRQVYLITVLAMILAVFFAQIHPNYLTQQWQRLRSIIFCSVSGYGVIPTLHWVWLNGGIGAPIVQDFAPRVIVMYMIALLAFLFYISKVPERYFPGQLNYLGSSHQIWHILAVVMLYWWHQSTVYVMQYRHSKPCPDYVSHL
As to B6, the binding result is “binds” in assay [1] and “no binding” with Flag-tagged SREBP-2.
